The full ranking holds about 81,000 sequences; the median of “one-hybrid fitness for binding NBS DNA” is about -0.1, and the highest 2% start at about 0.36. Some of the results follow.
B1: Caulobacter ParB omega fusion; a variant is named by its letters at X, in order, B8GW30 (parent)
chain: MESVVVGEPGMSEGRRGLGRGLSALLGEVDAAPAQAPGEQLGGSREAPIEILQRNPDQPRRTFREEDLEDLSNSIREKGVLQPILVRPSPDTAGEYQIVAGERAWRAAQRAGLKTVPIMVRELDDLAVLEIGIIENVQRADLNVLEEALSYKVLMEKFERTQENIAQTIGKSXSHVANXMRLLXLPDEVQSYLVSGELTAXHARAIAAAADPVALAKQIIEGGLSVRETEALARKAPNLSAGKSKGGRPPRVKDTDTQALESDLSSVLGLDVSIDHRGSTGTLTITYATLEQLDDLCNRLTRGI

Variants of: B1
Assay: one-hybrid fitness for binding NBS DNA (the Noc-binding site; scaled: cognate 1, non-cognate 0); higher = stronger binding
Conditions: with NBS DNA site
Method in brief: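 On M9-minus-histidine containing 0.1 mM IPTG and 5 mM 3-AT, E. coli USO cells with a HIS3 reporter, site 19 bp from the promoter, grew 48 hours at 37°C to select Caulobacter ParB libraries randomised at four specificity codons. Plasmids from before and after were Illumina-sequenced, with three replicate libraries pooled and variants under 10 reads left out. Fitness is the log change in variant-to-wild-type read ratio, rescaled against cognate and non-cognate.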

Variant	one-hybrid fitness for binding NBS DNA
VQAC	≤ 0.2
MHRW	≤ 0.2
QQNK	≤ 0.2
DFQS	≤ 0.2
SHRK	≤ 0.2
YRKR	0.377
PATC	≤ 0.2
VCPW	≤ 0.2
PVAW	≤ 0.2
LMMG	≤ 0.2
PVMF	≤ 0.2
QKHA	0.28
RRDQ	0.241
CTTL	≤ 0.2
NHNR	≤ 0.2
QMYG	≤ 0.2
QILP	≤ 0.2
AGLR	≤ 0.2
VPYT	≤ 0.2
YSHC	≤ 0.2
AYRK	≤ 0.2
LTTA	≤ 0.2
AEIR	≤ 0.2
KMAG	≤ 0.2

Variant	one-hybrid fitness for binding NBS DNA
NAHP	≤ 0.2
AQLF	≤ 0.2
LCKG	≤ 0.2
ACPI	≤ 0.2
IQSG	≤ 0.2
VISN	≤ 0.2
CSES	≤ 0.2
IAHV	≤ 0.2
LFCC	≤ 0.2
KRML	≤ 0.2
QPDV	≤ 0.2
PDQG	≤ 0.2
QDTG	≤ 0.2
GAGV	≤ 0.2
PKPH	≤ 0.2
DMNM	≤ 0.2
QANL	≤ 0.2
QWDL	≤ 0.2
YDHT	≤ 0.2
GILR	≤ 0.2
GPAS	≤ 0.2
QHCK	≤ 0.2
RPVT	≤ 0.2
DFTR	≤ 0.2

Variant	one-hybrid fitness for binding NBS DNA
QDYG	≤ 0.2
CNVT	≤ 0.2
ETYY	≤ 0.2
PWLC	≤ 0.2
KENH	≤ 0.2
CKHR	≤ 0.2
RNHE	≤ 0.2
SSIG	≤ 0.2
WQMS	≤ 0.2
YMFS	≤ 0.2
QHVL	≤ 0.2
YSMW	≤ 0.2
SCWE	≤ 0.2
YDKV	≤ 0.2
GMCN	≤ 0.2
PSYE	≤ 0.2
PASA	≤ 0.2
RTQM	≤ 0.2
GGLH	≤ 0.2
GCLR	≤ 0.2
ANMM	≤ 0.2
YFNG	≤ 0.2
VKPT	≤ 0.2
NQSL	≤ 0.2

Variant	one-hybrid fitness for binding NBS DNA
TTCT	≤ 0.2
FKSW	≤ 0.2
GRTD	≤ 0.2
IPRV	≤ 0.2
SHFP	≤ 0.2
VGGP	≤ 0.2
HRWC	≤ 0.2
LPKG	≤ 0.2
TQGF	≤ 0.2
TLCH	≤ 0.2
VSGL	≤ 0.2
TALQ	≤ 0.2
PEVK	≤ 0.2
TPHL	≤ 0.2
CSTT	≤ 0.2
TWHK	≤ 0.2
TEFV	≤ 0.2
TCRL	≤ 0.2
IASL	≤ 0.2
TNAI	≤ 0.2
THDE	≤ 0.2
RFVF	≤ 0.2
PNTR	≤ 0.2
RREK	≤ 0.2

Variant	one-hybrid fitness for binding NBS DNA
PMCG	≤ 0.2
RGKK	≤ 0.2
MQAC	≤ 0.2
KRPQ	≤ 0.2
LAQS	≤ 0.2
RPMH	≤ 0.2
GPGS	≤ 0.2
SWPI	≤ 0.2
TTVC	≤ 0.2
WWSC	≤ 0.2
KQNS	≤ 0.2
LRRP	≤ 0.2
TRWN	≤ 0.2
FLSA	≤ 0.2
RGPE	≤ 0.2
ARKL	≤ 0.2
CGVR	≤ 0.2
TPEN	≤ 0.2
QTNH	0.495
WVTS	≤ 0.2
CANM	≤ 0.2
AATS	≤ 0.2
ITTW	≤ 0.2
REMS	≤ 0.2

Variant	one-hybrid fitness for binding NBS DNA
RLYY	≤ 0.2
PGCM	≤ 0.2
EAQG	≤ 0.2
HSRN	≤ 0.2
IKKC	≤ 0.2
SKHR	≤ 0.2
KYQK	≤ 0.2
IDVM	≤ 0.2
TLSD	≤ 0.2
AKDG	≤ 0.2
TRDG	≤ 0.2
MPQG	≤ 0.2
YKPY	≤ 0.2
QPAA	≤ 0.2
KADW	≤ 0.2
IPYG	≤ 0.2
FRMS	≤ 0.2
AALV	≤ 0.2
QKYS	0.43
SESG	≤ 0.2
EWQK	≤ 0.2
KLNN	≤ 0.2
CVAD	≤ 0.2
THLK	≤ 0.2

Variant	one-hybrid fitness for binding NBS DNA
GNCR	≤ 0.2
QPPD	≤ 0.2
CNSG	≤ 0.2
QVGW	≤ 0.2
RQSK	≤ 0.2
QDNF	≤ 0.2
NGNR	≤ 0.2
HHTP	≤ 0.2
SNFT	≤ 0.2
PEAW	≤ 0.2
VRRW	≤ 0.2
PAFT	≤ 0.2
NGRD	≤ 0.2
LNVR	≤ 0.2
PIPI	≤ 0.2
VWNS	≤ 0.2
AHNS	≤ 0.2
LHCG	≤ 0.2
LSVI	≤ 0.2
MCLL	≤ 0.2
YSTY	≤ 0.2
YMCS	≤ 0.2
TRNV	≤ 0.2
KESF	≤ 0.2

Variant	one-hybrid fitness for binding NBS DNA
QTGL	≤ 0.2
TPGD	≤ 0.2
TGRF	≤ 0.2
SNWL	≤ 0.2
QYLE	≤ 0.2
RYAM	≤ 0.2
VRIM	≤ 0.2
QGGT	≤ 0.2
GGRA	≤ 0.2
KGPG	≤ 0.2
TMIK	≤ 0.2
PFTQ	≤ 0.2
WQTG	≤ 0.2
TLEF	≤ 0.2
VCFE	≤ 0.2
ALAM	≤ 0.2
SARK	≤ 0.2
SAFA	≤ 0.2
QNWD	≤ 0.2
QRQH	0.544
SGSL	≤ 0.2
PCVC	≤ 0.2
VDHF	≤ 0.2
NQLE	≤ 0.2

Variant	one-hybrid fitness for binding NBS DNA
NCPF	≤ 0.2
MWEC	≤ 0.2
HRHK	≤ 0.2
CTQG	≤ 0.2
FGKF	≤ 0.2
QHQS	0.394
GPTT	≤ 0.2
GVIC	≤ 0.2
WRGA	≤ 0.2
CWAS	≤ 0.2
IWSS	≤ 0.2
LRKV	≤ 0.2
DQMC	≤ 0.2
AKYA	≤ 0.2
KAAQ	≤ 0.2
ATVQ	≤ 0.2
RFSY	≤ 0.2
KQSW	≤ 0.2
PDPV	≤ 0.2
CWIG	0.406
NGWN	≤ 0.2
QQYY	≤ 0.2
NIRE	≤ 0.2
SHMG	≤ 0.2

Variant	one-hybrid fitness for binding NBS DNA
LVTA	≤ 0.2
HWFG	≤ 0.2
CFPE	≤ 0.2
RQFC	≤ 0.2
TDEM	≤ 0.2
DRKG	≤ 0.2
PAAK	≤ 0.2
WVCC	≤ 0.2
ATTW	≤ 0.2
EKTI	≤ 0.2
YPTS	≤ 0.2
ARAV	≤ 0.2
CSRM	≤ 0.2
HIWY	≤ 0.2
FYAC	≤ 0.2
GIGT	≤ 0.2
PTLN	≤ 0.2
WMVV	≤ 0.2
QIND	≤ 0.2
VVIC	≤ 0.2
SYRH	≤ 0.2
MEAG	≤ 0.2
DSDK	≤ 0.2
PHYL	≤ 0.2

Variant	one-hybrid fitness for binding NBS DNA
RREF	≤ 0.2
GAHC	≤ 0.2
RRMK	0.208
IETG	≤ 0.2
NGYD	≤ 0.2
VYAL	≤ 0.2
SWTG	≤ 0.2
SPMV	≤ 0.2
ARSS	≤ 0.2
YSMR	≤ 0.2
GFLT	≤ 0.2
GQNG	≤ 0.2
VFWT	≤ 0.2
LMSS	≤ 0.2
ALSL	≤ 0.2
LGRG	≤ 0.2
NQMS	≤ 0.2
KKWT	≤ 0.2
KKKV	≤ 0.2
FNGE	≤ 0.2
LRTT	≤ 0.2
IFRR	≤ 0.2
LCLE	≤ 0.2
RQKE	≤ 0.2

Variant	one-hybrid fitness for binding NBS DNA
DSLM	≤ 0.2
EYTV	≤ 0.2
PETW	≤ 0.2
IPYW	≤ 0.2
RFTF	≤ 0.2
DSQD	≤ 0.2
VKCF	≤ 0.2
ETHC	≤ 0.2
NYDL	≤ 0.2
SKLS	≤ 0.2
HRTW	≤ 0.2
NPYM	≤ 0.2
AVGT	≤ 0.2
VKLY	≤ 0.2
QTMF	≤ 0.2
PSTL	≤ 0.2
GSLE	≤ 0.2
PYKW	≤ 0.2
VDQR	≤ 0.2
NYKW	≤ 0.2
TSEC	≤ 0.2
PLDP	≤ 0.2
TYGG	≤ 0.2
TMGV	≤ 0.2

Variant	one-hybrid fitness for binding NBS DNA
AVSS	≤ 0.2
LQDA	≤ 0.2
HDPW	≤ 0.2
NRIS	≤ 0.2
ALMA	≤ 0.2
HYAT	≤ 0.2
EDGG	≤ 0.2
TTEE	≤ 0.2
YQCG	≤ 0.2
CHAY	≤ 0.2
FHVY	≤ 0.2
LHSV	≤ 0.2
KNTH	≤ 0.2
DVPE	≤ 0.2
FAGQ	≤ 0.2
AVKP	≤ 0.2
PTFI	≤ 0.2
WMAQ	≤ 0.2
